Laboratory results as given in paper PMC9911399, “Two distinct binding modes provide the RNA-binding protein RbFox with extraordinary sequence specificity”.
Where a chain is given by its changes, count along the chain named. Some of the results follow.

T1: RBFOX1 RRM (Homo sapiens, UniProt Q9NWB1 109-208)
T1 sequence: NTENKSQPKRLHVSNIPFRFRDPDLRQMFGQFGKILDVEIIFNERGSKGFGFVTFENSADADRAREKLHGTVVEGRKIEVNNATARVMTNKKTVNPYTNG

B1: GGGCUGU (DNA:RNA)
RNA: GGGAGACCGGAAUUCAGAUUGUCCGGGCUGUUUAAAUCCCGUCGUAGCCACCA
DNA 1: CAATCTGAATTCCGGTCTCCC
DNA 2: TGGTGGCTACGACGGGATT
B2: UCGGACG (DNA:RNA)
RNA: B1 RNA with G25U, G26C, C28G, U29A, G30C, U31G
DNA 1: CAATCTGAATTCCGGTCTCCC
DNA 2: TGGTGGCTACGACGGGATT
B3: AGGUUUG (DNA:RNA)
RNA: B1 RNA with G25A, C28U, G30U, U31G
DNA 1: CAATCTGAATTCCGGTCTCCC
DNA 2: TGGTGGCTACGACGGGATT
B4: CACUAUA (DNA:RNA)
RNA: GGGAGACCGGAAUUCAGAUUGUCCCACUAUAUUAAAUCCCGUCGUAGCCACCA
DNA 1: CAATCTGAATTCCGGTCTCCC
DNA 2: TGGTGGCTACGACGGGATT
B5: CUGACAG (DNA:RNA)
RNA: B4 RNA with A26U, C27G, U28A, A29C, U30A, A31G
DNA 1: CAATCTGAATTCCGGTCTCCC
DNA 2: TGGTGGCTACGACGGGATT
B6: CUAGCGG (DNA:RNA)
RNA: B4 RNA with A26U, C27A, U28G, A29C, U30G, A31G
DNA 1: CAATCTGAATTCCGGTCTCCC
DNA 2: TGGTGGCTACGACGGGATT
B7: CAAUAAG (DNA:RNA)
RNA: B4 RNA with C27A, U30A, A31G
DNA 1: CAATCTGAATTCCGGTCTCCC
DNA 2: TGGTGGCTACGACGGGATT
B8: GACCGUA (DNA:RNA)
RNA: B4 RNA with C25G, U28C, A29G
DNA 1: CAATCTGAATTCCGGTCTCCC
DNA 2: TGGTGGCTACGACGGGATT
B9: CACGUGA (DNA:RNA)
RNA: B4 RNA with U28G, A29U, U30G
DNA 1: CAATCTGAATTCCGGTCTCCC
DNA 2: TGGTGGCTACGACGGGATT
B10: UAAGUAC (DNA:RNA)
RNA: B4 RNA with C25U, C27A, U28G, A29U, U30A, A31C
DNA 1: CAATCTGAATTCCGGTCTCCC
DNA 2: TGGTGGCTACGACGGGATT
B11: AGCUCUA (DNA:RNA)
RNA: B4 RNA with C25A, A26G, A29C
DNA 1: CAATCTGAATTCCGGTCTCCC
DNA 2: TGGTGGCTACGACGGGATT
B12: GAAGAAU (DNA:RNA)
RNA: B4 RNA with C25G, C27A, U28G, U30A, A31U
DNA 1: CAATCTGAATTCCGGTCTCCC
DNA 2: TGGTGGCTACGACGGGATT
B13: UUAUGAU (DNA:RNA)
RNA: B4 RNA with C25U, A26U, C27A, A29G, U30A, A31U
DNA 1: CAATCTGAATTCCGGTCTCCC
DNA 2: TGGTGGCTACGACGGGATT
B14: UUGAUGU (DNA:RNA)
RNA: B1 RNA with G25U, G26U, C28A
DNA 1: CAATCTGAATTCCGGTCTCCC
DNA 2: TGGTGGCTACGACGGGATT
B15: AAGGAGA (DNA:RNA)
RNA: B4 RNA with C25A, C27G, U28G, U30G
DNA 1: CAATCTGAATTCCGGTCTCCC
DNA 2: TGGTGGCTACGACGGGATT
B16: UACGGCG (DNA:RNA)
RNA: B4 RNA with C25U, U28G, A29G, U30C, A31G
DNA 1: CAATCTGAATTCCGGTCTCCC
DNA 2: TGGTGGCTACGACGGGATT
B17: GCAUUCC (DNA:RNA)
RNA: B1 RNA with G26C, G27A, C28U, G30C, U31C
DNA 1: CAATCTGAATTCCGGTCTCCC
DNA 2: TGGTGGCTACGACGGGATT
B18: GCAUGAC (DNA:RNA)
RNA: B4 RNA with C25G, A26C, C27A, A29G, U30A, A31C
DNA 1: CAATCTGAATTCCGGTCTCCC
DNA 2: TGGTGGCTACGACGGGATT
B19: GGCGAGG (DNA:RNA)
RNA: B1 RNA with G27C, C28G, U29A, U31G
DNA 1: CAATCTGAATTCCGGTCTCCC
DNA 2: TGGTGGCTACGACGGGATT
B20: AGGUUUC (DNA:RNA)
RNA: B1 RNA with G25A, C28U, G30U, U31C
DNA 1: CAATCTGAATTCCGGTCTCCC
DNA 2: TGGTGGCTACGACGGGATT

Each binder was assayed against T1, RBFOX1 RRM (assay: EMSA; HiTS-Eq, 1 nM pool, 10 min; buffer printed only for the single-RNA assays: 10 mM Tris pH 7.5, 150 mM NaCl, 3.4 mM EDTA, 0.001% NP-40, 30 C). Details: tags: His6 N-terminal (pET28a); label: 5' 32P.
Outline: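 A pool of RNA with 7 randomized nucleotides, 5′-radiolabelled and with DNA-annealed flanks, was equilibrated at 1 nM for 10 min in 50 µL with purified RbFox RRM, wild type or mutant, across increasing protein concentrations. Free RNA was separated by 8% native PAGE, excised, reverse-transcribed, barcoded by PCR and sequenced. Relative association constants were obtained from read-count changes of each RNA species versus the control reaction and normalised to the cognate motif.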

Row | Binder | binding signal
1 | B1 | 0.0234 KA relative to UGCAUGU
2 | B2 | 0.0078 KA relative to UGCAUGU
3 | B3 | 0.0194 KA relative to UGCAUGU
4 | B4 | 0.00179 KA relative to UGCAUGU
5 | B5 | 0.0131 KA relative to UGCAUGU
6 | B6 | 0.00506 KA relative to UGCAUGU
7 | B7 | 0.00824 KA relative to UGCAUGU
8 | B8 | 0.00492 KA relative to UGCAUGU
9 | B9 | 0.0101 KA relative to UGCAUGU
10 | B10 | 0.0139 KA relative to UGCAUGU
11 | B11 | 0.00481 KA relative to UGCAUGU
12 | B12 | 0.0101 KA relative to UGCAUGU
13 | B13 | 0.0155 KA relative to UGCAUGU
14 | B14 | 0.0178 KA relative to UGCAUGU
15 | B15 | 0.00618 KA relative to UGCAUGU
16 | B16 | 0.0116 KA relative to UGCAUGU
17 | B17 | 0.00945 KA relative to UGCAUGU
18 | B18 | 0.599 KA relative to UGCAUGU
19 | B19 | 0.0203 KA relative to UGCAUGU
20 | B20 | 0.0155 KA relative to UGCAUGU
